Experimental findings from patent publication US20260209383A1, “SITE-[…] […] ANTIBODY DRUG CONJUGATES” (SEAGEN INC., priority 2022, published 2026) are described below.

Series [1] concerns HPAFII cells. Description: In vitro cytotoxicity assay (CellTiter-Glo), HPAFII. The series is classed as cell-based. The procedure:
(§1) In vitro cytotoxicity assay: The cytotoxic effect of an EC4-based ADC was measured by a cell proliferation assay employing the protocol in the Promega Corp. Technical Bulletin TB288; and Mendoza et a1., 2002, Cancer Res. 62:5485-5488), the methods of which are specifically incorporated by reference herein. Briefly, an aliquot of 40 μl of cell culture containing about 400 cells in medium was deposited in each well of a 384-well, opaque-walled plate. A 10 μL aliquot of free cytotoxic agent or ADC was added to the experimental wells and incubated for 96 hr and then incubated at room temperature for approximately 30 mins whereupon a volume of CellTiter-Glo™ reagent equal to the volume of cell culture medium present in each well was added. The contents were mixed for 2 mins on an orbital shaker to induce cell lysis and the plate was incubated at room temperature for 10 mins to stabilize the luminescence signal for recordation.
(§2) Anti-ITGB6 ADCs were tested for potency. The antibodies were engineered with the cysteine pairs disclosed above in the previous Examples. The efficacy of anti-ITGB6 EC4 ADCs were also tested against conventional anti-ITGB6 ADCs. The cells were treated with conventional or EC4 ADCs, then the remaining cells were counted to assess the cytotoxic effects of each EC4 variant compared to conventional ADCs. […]

The test system of series [2] is BxPC-3 cells. Description: In vitro cytotoxicity assay (CellTiter-Glo), BxPC-3. The series is classed as cell-based. To be noted: BXPC3; 96 hr. The procedure: as §1, §2
A general note: In ATP-based viability assays light output follows the ATP content of the culture.

B1: h2A2 S400C S114C-mc-vc-MMAE(4): anti-ITGB6 antibody h2A2 with engineered cysteines S400C and S114C, conjugated with mc-vc-MMAE, DAR about 4 (conjugate)
heavy: QFQLVQSGAEVKKPGASVKVSCKASGYSFTDYNVNWVRQAPGQGLEWIGVINPKYGTTRYNQKFKGRATLTVDKSTSTAYMELSSLRSEDTAVYYCTRGLNAWDYWGQGTLVTVSS[not shown - human IgG1 constant region with S400C (EU numbers)]
light: DIQMTQSPSSLSASVGDRVTITCGASENIYGALNWYQQKPGKAPKLLIYGATNLEDGVPSRFSGSGSGRDYTFTISSLQPEDIATYYCQNVLTTPYTFGQGTKLEIKRTVAAPCVFIFPPSDEQLKSGTASVVCLLNNFYPREAKVQWKVDNALQSGNSQESVTEQDSKDSTYSLSSTLTLSKADYEKHKVYACEVTHQGLSSPVTKSFNRGEC
As to B1, in series [1], the “% viability at top concentration” value came out at 19%. Further, the x50 in series [1] (96 hr) turned out to be 360 ng/mL; in series [2] it was 236 ng/mL.
